Assay results from the supplement of paper PMC4967469.
The IC50 comes from the fitted curve, where viability falls to half of the control; a fit beyond the top or the lowest dose is shown as a bound at that dose. AUC, from the same fit, is the share of area under the viability curve across the 256-fold dose range; the more sensitive the line, the further below 1. An inferred top dose was calculated from the reported fits. For part of these data: Where an entry number is given, a second screen of the drug exists; the two often differ.

Compound: Cc1cc(N2CCOCC2)cc2[nH]c(-c3c(NC[C@@H](O)c4cccc(Cl)c4)cc[nH]c3=O)nc12 [BMS-536924]
Assay: Viability of human cancer cell lines after 72 h of drug (GDSC screen)
Conditions: top dose 4 µM; screen: GDSC drug entry 1091; top dose inferred
Experimental: (§1)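 Human cancer cell lines in 384-well plates, medium with 10% serum, drug for 72 h over a 256-fold dose range (nine 2-fold or five 4-fold steps up to the top dose). Adherent lines were fixed and stained with the nucleic acid dye Syto60, suspension lines read with resazurin; signal relative to control wells, capped at 0 and 100%. One two-parameter sigmoid per drug and line, fitted in a mixed model over all curves with the slope shared within a line.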

| Cell Line | AUC | IC50 [µM] |
| --- | --- | --- |
| NCI-H520 (lung squamous cell carcinoma, adherent) | 0.96 | > 4 |
| NCI-H596 (lung adenocarcinoma, adherent) | 0.893 | > 4 |
| NCI-H661 (large cell lung carcinoma, adherent) | 0.851 | > 4 |
| NCI-H727 (lung carcinoid, adherent) | 0.839 | > 4 |
| NCI-H1048 (small cell lung carcinoma, adherent) | 0.948 | > 4 |
| NCI-H1435 (lung adenocarcinoma, semi-adherent) | 0.986 | > 4 |
| NCI-H2009 (lung adenocarcinoma, adherent) | 0.912 | > 4 |
| NCI-H2172 (non-small cell lung carcinoma, adherent) | 0.902 | > 4 |
| NCI-H2342 (lung adenocarcinoma, adherent) | 0.933 | > 4 |
| NCI-H2405 (lung adenocarcinoma, adherent) | 0.93 | > 4 |
| NCI-H2444 (non-small cell lung carcinoma, adherent) | 0.967 | > 4 |
| NCI-H2452 (mesothelioma, adherent) | 0.919 | > 4 |
| OE19 (oesophagus, adherent) | 0.978 | > 4 |
| OE33 (oesophagus, adherent) | 0.968 | > 4 |
| OSC-20 (head and neck, adherent) | 0.93 | > 4 |

Compound: Cc1ccc(-n2nc(C(C)(C)C)cc2NC(=O)Nc2ccc(OCCN3CCOCC3)c3ccccc23)cc1 [BIRB 0796]
Assay: as above
Conditions: top dose 10 µM; top dose inferred
Experimental: as §1

| Cell Line | AUC | IC50 [µM] |
| --- | --- | --- |
| NCI-H520 (lung squamous cell carcinoma, adherent) | 0.981 | > 10 |
| NCI-H596 (lung adenocarcinoma, adherent) | 0.982 | > 10 |
| NCI-H661 (large cell lung carcinoma, adherent) | 0.88 | > 10 |
| NCI-H727 (lung carcinoid, adherent) | 0.942 | > 10 |
| NCI-H1048 (small cell lung carcinoma, adherent) | 0.984 | > 10 |
| NCI-H1435 (lung adenocarcinoma, semi-adherent) | 0.992 | > 10 |
| NCI-H2009 (lung adenocarcinoma, adherent) | 0.925 | > 10 |
| NCI-H2172 (non-small cell lung carcinoma, adherent) | 0.967 | > 10 |
| NCI-H2342 (lung adenocarcinoma, adherent) | 0.983 | > 10 |
| NCI-H2405 (lung adenocarcinoma, adherent) | 0.96 | > 10 |
| NCI-H2444 (non-small cell lung carcinoma, adherent) | 0.981 | > 10 |
| NCI-H2452 (mesothelioma, adherent) | 0.952 | > 10 |
| OE19 (oesophagus, adherent) | 0.969 | > 10 |
| OE33 (oesophagus, adherent) | 0.976 | > 10 |
| OSC-20 (head and neck, adherent) | 0.982 | > 10 |

Compound: Cc1cccc(-c2[nH]c(C(C)(C)C)nc2-c2ccc3nccnc3c2)n1 [SB-525334]
Assay: as above
Conditions: top dose 20 µM; top dose inferred
Experimental: as §1

| Cell Line | AUC | IC50 [µM] |
| --- | --- | --- |
| NCI-H520 (lung squamous cell carcinoma, adherent) | 0.885 | > 20 |
| NCI-H596 (lung adenocarcinoma, adherent) | 0.862 | > 20 |
| NCI-H661 (large cell lung carcinoma, adherent) | 0.889 | > 20 |
| NCI-H727 (lung carcinoid, adherent) | 0.957 | > 20 |
| NCI-H1048 (small cell lung carcinoma, adherent) | 0.51 | 1.33 |
| NCI-H1435 (lung adenocarcinoma, semi-adherent) | 0.981 | > 20 |
| NCI-H2009 (lung adenocarcinoma, adherent) | 0.976 | > 20 |
| NCI-H2172 (non-small cell lung carcinoma, adherent) | 0.944 | > 20 |
| NCI-H2342 (lung adenocarcinoma, adherent) | 0.986 | > 20 |
| NCI-H2405 (lung adenocarcinoma, adherent) | 0.944 | > 20 |
| NCI-H2444 (non-small cell lung carcinoma, adherent) | 0.979 | > 20 |
| NCI-H2452 (mesothelioma, adherent) | 0.984 | > 20 |
| OE19 (oesophagus, adherent) | 0.986 | > 20 |
| OE33 (oesophagus, adherent) | 0.831 | 16.1 |
| OSC-20 (head and neck, adherent) | 0.956 | > 20 |

Compound: CC(C)=CC[C@@H](O)C1=CC(=O)c2c(O)ccc(O)c2C1=O [Shikonin]
Assay: as above
Conditions: top dose 16 µM; top dose inferred
Experimental: as §1

| Cell Line | AUC | IC50 [µM] |
| --- | --- | --- |
| NCI-H520 (lung squamous cell carcinoma, adherent) | 0.506 | 1.04 |
| NCI-H596 (lung adenocarcinoma, adherent) | 0.457 | 0.74 |
| NCI-H661 (large cell lung carcinoma, adherent) | 0.701 | 4.17 |
| NCI-H727 (lung carcinoid, adherent) | 0.428 | 0.559 |
| NCI-H1048 (small cell lung carcinoma, adherent) | 0.716 | 3.78 |
| NCI-H1435 (lung adenocarcinoma, semi-adherent) | 0.653 | 2.52 |
| NCI-H2009 (lung adenocarcinoma, adherent) | 0.155 | 0.0799 |
| NCI-H2172 (non-small cell lung carcinoma, adherent) | 0.935 | > 16 |
| NCI-H2342 (lung adenocarcinoma, adherent) | 0.237 | 0.158 |
| NCI-H2405 (lung adenocarcinoma, adherent) | 0.418 | 0.583 |
| NCI-H2444 (non-small cell lung carcinoma, adherent) | 0.68 | 3.44 |
| NCI-H2452 (mesothelioma, adherent) | 0.853 | > 16 |
| OE19 (oesophagus, adherent) | 0.587 | 1.79 |
| OE33 (oesophagus, adherent) | 0.603 | 2.02 |
| OSC-20 (head and neck, adherent) | 0.272 | 0.196 |

Compound: O=C1NC(=O)c2c1c(-c1ccccc1Cl)cc1[nH]c3ccc(O)cc3c21 [Wee1 inhibitor 681640]
Assay: as above
Conditions: top dose 2 µM; top dose inferred
Experimental: as §1

| Cell Line | AUC | IC50 [µM] |
| --- | --- | --- |
| NCI-H520 (lung squamous cell carcinoma, adherent) | 0.987 | > 2 |
| NCI-H596 (lung adenocarcinoma, adherent) | 0.982 | > 2 |
| NCI-H661 (large cell lung carcinoma, adherent) | 0.905 | > 2 |
| NCI-H727 (lung carcinoid, adherent) | 0.94 | > 2 |
| NCI-H1048 (small cell lung carcinoma, adherent) | 0.916 | > 2 |
| NCI-H1435 (lung adenocarcinoma, semi-adherent) | 0.992 | > 2 |
| NCI-H2009 (lung adenocarcinoma, adherent) | 0.954 | > 2 |
| NCI-H2172 (non-small cell lung carcinoma, adherent) | 0.979 | > 2 |
| NCI-H2342 (lung adenocarcinoma, adherent) | 0.986 | > 2 |
| NCI-H2405 (lung adenocarcinoma, adherent) | 0.977 | > 2 |
| NCI-H2444 (non-small cell lung carcinoma, adherent) | 0.988 | > 2 |
| NCI-H2452 (mesothelioma, adherent) | 0.982 | > 2 |
| OE19 (oesophagus, adherent) | 0.955 | > 2 |
| OE33 (oesophagus, adherent) | 0.954 | > 2 |
| OSC-20 (head and neck, adherent) | 0.907 | > 2 |

Compound: O=C(c1cc(Cc2n[nH]c(=O)c3ccccc23)ccc1F)N1CCN(C(=O)C2CC2)CC1 [Olaparib]
Assay: as above
Conditions: top dose 5 µM; screen: GDSC drug entry 1017; top dose inferred
Experimental: as §1

| Cell Line | AUC | IC50 [µM] |
| --- | --- | --- |
| NCI-H520 (lung squamous cell carcinoma, adherent) | 0.987 | > 5 |
| NCI-H596 (lung adenocarcinoma, adherent) | 0.981 | > 5 |
| NCI-H661 (large cell lung carcinoma, adherent) | 0.98 | > 5 |
| NCI-H727 (lung carcinoid, adherent) | 0.96 | > 5 |
| NCI-H1048 (small cell lung carcinoma, adherent) | 0.91 | > 5 |
| NCI-H1435 (lung adenocarcinoma, semi-adherent) | 0.971 | > 5 |
| NCI-H2009 (lung adenocarcinoma, adherent) | 0.971 | > 5 |
| NCI-H2172 (non-small cell lung carcinoma, adherent) | 0.979 | > 5 |
| NCI-H2342 (lung adenocarcinoma, adherent) | 0.986 | > 5 |
| NCI-H2405 (lung adenocarcinoma, adherent) | 0.983 | > 5 |
| NCI-H2444 (non-small cell lung carcinoma, adherent) | 0.988 | > 5 |
| NCI-H2452 (mesothelioma, adherent) | 0.984 | > 5 |
| OE19 (oesophagus, adherent) | 0.985 | > 5 |
| OE33 (oesophagus, adherent) | 0.983 | > 5 |
| OSC-20 (head and neck, adherent) | 0.982 | > 5 |

Same assay, conditions: top dose 10 µM; screen: GDSC drug entry 1495

| Cell Line | AUC | IC50 [µM] |
| --- | --- | --- |
| NCI-H520 (lung squamous cell carcinoma, adherent) | 0.979 | > 10 |
| NCI-H596 (lung adenocarcinoma, adherent) | 0.931 | > 10 |
| NCI-H661 (large cell lung carcinoma, adherent) | 0.925 | > 10 |
| NCI-H727 (lung carcinoid, adherent) | 0.937 | > 10 |
| NCI-H1048 (small cell lung carcinoma, adherent) | 0.821 | 5.03 |
| NCI-H1435 (lung adenocarcinoma, semi-adherent) | 0.984 | > 10 |
| NCI-H2009 (lung adenocarcinoma, adherent) | 0.939 | > 10 |
| NCI-H2172 (non-small cell lung carcinoma, adherent) | 0.981 | > 10 |
| NCI-H2342 (lung adenocarcinoma, adherent) | 0.905 | > 10 |
| NCI-H2405 (lung adenocarcinoma, adherent) | 0.959 | > 10 |
| NCI-H2444 (non-small cell lung carcinoma, adherent) | 0.985 | > 10 |
| NCI-H2452 (mesothelioma, adherent) | 0.918 | > 10 |
| OE19 (oesophagus, adherent) | 0.942 | > 10 |
| OE33 (oesophagus, adherent) | 0.978 | > 10 |
| OSC-20 (head and neck, adherent) | 0.918 | > 10 |

Compound: NC(=O)c1ccc(N(C(N)=O)c2c(F)cccc2F)nc1-c1ccc(F)cc1F [VX-702]
Assay: as above
Conditions: top dose 2 µM; top dose inferred
Experimental: as §1

| Cell Line | AUC | IC50 [µM] |
| --- | --- | --- |
| NCI-H520 (lung squamous cell carcinoma, adherent) | 0.987 | > 2 |
| NCI-H596 (lung adenocarcinoma, adherent) | 0.981 | > 2 |
| NCI-H661 (large cell lung carcinoma, adherent) | 0.98 | > 2 |
| NCI-H727 (lung carcinoid, adherent) | 0.971 | > 2 |
| NCI-H1048 (small cell lung carcinoma, adherent) | 0.99 | > 2 |
| NCI-H1435 (lung adenocarcinoma, semi-adherent) | 0.961 | > 2 |
| NCI-H2009 (lung adenocarcinoma, adherent) | 0.987 | > 2 |
| NCI-H2172 (non-small cell lung carcinoma, adherent) | 0.983 | > 2 |
| NCI-H2342 (lung adenocarcinoma, adherent) | 0.986 | > 2 |
| NCI-H2405 (lung adenocarcinoma, adherent) | 0.985 | > 2 |
| NCI-H2444 (non-small cell lung carcinoma, adherent) | 0.988 | > 2 |
| NCI-H2452 (mesothelioma, adherent) | 0.984 | > 2 |
| OE19 (oesophagus, adherent) | 0.981 | > 2 |
| OE33 (oesophagus, adherent) | 0.983 | > 2 |
| OSC-20 (head and neck, adherent) | 0.965 | > 2 |
